The source of these data is article PMC9911399, “Two distinct binding modes provide the RNA-binding protein RbFox with extraordinary sequence specificity”.

Positions count from the first letter of the chain named. This is one part of the list.

B1: GGCCCUA (DNA:RNA)
RNA: GGGAGACCGGAAUUCAGAUUGUCCGGCCCUAUUAAAUCCCGUCGUAGCCACCA
DNA 1: CAATCTGAATTCCGGTCTCCC
DNA 2: TGGTGGCTACGACGGGATT
B2: GCAGAGA (DNA:RNA)
RNA: B1 RNA with G26C, C27A, C28G, C29A, U30G
DNA 1: CAATCTGAATTCCGGTCTCCC
DNA 2: TGGTGGCTACGACGGGATT
B3: CCGCGAU (DNA:RNA)
RNA: B1 RNA with G25C, G26C, C27G, C29G, U30A, A31U
DNA 1: CAATCTGAATTCCGGTCTCCC
DNA 2: TGGTGGCTACGACGGGATT
B4: UAGAGGU (DNA:RNA)
RNA: GGGAGACCGGAAUUCAGAUUGUCCUAGAGGUUUAAAUCCCGUCGUAGCCACCA
DNA 1: CAATCTGAATTCCGGTCTCCC
DNA 2: TGGTGGCTACGACGGGATT
B5: GGUGCUG (DNA:RNA)
RNA: B1 RNA with C27U, C28G, A31G
DNA 1: CAATCTGAATTCCGGTCTCCC
DNA 2: TGGTGGCTACGACGGGATT
B6: GUCCUGU (DNA:RNA)
RNA: B1 RNA with G26U, C29U, U30G, A31U
DNA 1: CAATCTGAATTCCGGTCTCCC
DNA 2: TGGTGGCTACGACGGGATT
B7: CUGGACG (DNA:RNA)
RNA: B4 RNA with U25C, A26U, A28G, G29A, G30C, U31G
DNA 1: CAATCTGAATTCCGGTCTCCC
DNA 2: TGGTGGCTACGACGGGATT
B8: GUGCAAA (DNA:RNA)
RNA: B1 RNA with G26U, C27G, C29A, U30A
DNA 1: CAATCTGAATTCCGGTCTCCC
DNA 2: TGGTGGCTACGACGGGATT
B9: CUGUUAU (DNA:RNA)
RNA: B4 RNA with U25C, A26U, A28U, G29U, G30A
DNA 1: CAATCTGAATTCCGGTCTCCC
DNA 2: TGGTGGCTACGACGGGATT
B10: GAACCGA (DNA:RNA)
RNA: B1 RNA with G26A, C27A, U30G
DNA 1: CAATCTGAATTCCGGTCTCCC
DNA 2: TGGTGGCTACGACGGGATT
B11: GGUAUGG (DNA:RNA)
RNA: B1 RNA with C27U, C28A, C29U, U30G, A31G
DNA 1: CAATCTGAATTCCGGTCTCCC
DNA 2: TGGTGGCTACGACGGGATT
B12: GGUGUCG (DNA:RNA)
RNA: B1 RNA with C27U, C28G, C29U, U30C, A31G
DNA 1: CAATCTGAATTCCGGTCTCCC
DNA 2: TGGTGGCTACGACGGGATT
B13: UUUUCUA (DNA:RNA)
RNA: B1 RNA with G25U, G26U, C27U, C28U
DNA 1: CAATCTGAATTCCGGTCTCCC
DNA 2: TGGTGGCTACGACGGGATT
B14: AUGAAUC (DNA:RNA)
RNA: B4 RNA with U25A, A26U, G29A, G30U, U31C
DNA 1: CAATCTGAATTCCGGTCTCCC
DNA 2: TGGTGGCTACGACGGGATT
B15: CAACUCU (DNA:RNA)
RNA: B4 RNA with U25C, G27A, A28C, G29U, G30C
DNA 1: CAATCTGAATTCCGGTCTCCC
DNA 2: TGGTGGCTACGACGGGATT
B16: CGUAGCA (DNA:RNA)
RNA: B1 RNA with G25C, C27U, C28A, C29G, U30C
DNA 1: CAATCTGAATTCCGGTCTCCC
DNA 2: TGGTGGCTACGACGGGATT
B17: AGUGGGC (DNA:RNA)
RNA: B4 RNA with U25A, A26G, G27U, A28G, U31C
DNA 1: CAATCTGAATTCCGGTCTCCC
DNA 2: TGGTGGCTACGACGGGATT
B18: UUGCUAA (DNA:RNA)
RNA: B1 RNA with G25U, G26U, C27G, C29U, U30A
DNA 1: CAATCTGAATTCCGGTCTCCC
DNA 2: TGGTGGCTACGACGGGATT
B19: UGGAUAA (DNA:RNA)
RNA: B4 RNA with A26G, G29U, G30A, U31A
DNA 1: CAATCTGAATTCCGGTCTCCC
DNA 2: TGGTGGCTACGACGGGATT
B20: AUGGAGU (DNA:RNA)
RNA: B4 RNA with U25A, A26U, A28G, G29A
DNA 1: CAATCTGAATTCCGGTCTCCC
DNA 2: TGGTGGCTACGACGGGATT
B21: UAUCAUC (DNA:RNA)
RNA: B1 RNA with G25U, G26A, C27U, C29A, A31C
DNA 1: CAATCTGAATTCCGGTCTCCC
DNA 2: TGGTGGCTACGACGGGATT
B22: GAGUAUG (DNA:RNA)
RNA: B1 RNA with G26A, C27G, C28U, C29A, A31G
DNA 1: CAATCTGAATTCCGGTCTCCC
DNA 2: TGGTGGCTACGACGGGATT
B23: UUAUGGC (DNA:RNA)
RNA: B4 RNA with A26U, G27A, A28U, U31C
DNA 1: CAATCTGAATTCCGGTCTCCC
DNA 2: TGGTGGCTACGACGGGATT
B24: UUGAGGU (DNA:RNA)
RNA: B4 RNA with A26U
DNA 1: CAATCTGAATTCCGGTCTCCC
DNA 2: TGGTGGCTACGACGGGATT
B25: GGGAGAG (DNA:RNA)
RNA: B4 RNA with U25G, A26G, G30A, U31G
DNA 1: CAATCTGAATTCCGGTCTCCC
DNA 2: TGGTGGCTACGACGGGATT
B26: UCGAUAU (DNA:RNA)
RNA: B4 RNA with A26C, G29U, G30A
DNA 1: CAATCTGAATTCCGGTCTCCC
DNA 2: TGGTGGCTACGACGGGATT
B27: ACUAUCG (DNA:RNA)
RNA: B4 RNA with U25A, A26C, G27U, G29U, G30C, U31G
DNA 1: CAATCTGAATTCCGGTCTCCC
DNA 2: TGGTGGCTACGACGGGATT
B28: GUUCCCA (DNA:RNA)
RNA: B1 RNA with G26U, C27U, U30C
DNA 1: CAATCTGAATTCCGGTCTCCC
DNA 2: TGGTGGCTACGACGGGATT
B29: GAGCAUG (DNA:RNA)
RNA: B1 RNA with G26A, C27G, C29A, A31G
DNA 1: CAATCTGAATTCCGGTCTCCC
DNA 2: TGGTGGCTACGACGGGATT
B30: UCCAAAC (DNA:RNA)
RNA: B4 RNA with A26C, G27C, G29A, G30A, U31C
DNA 1: CAATCTGAATTCCGGTCTCCC
DNA 2: TGGTGGCTACGACGGGATT
B31: UUCGGCA (DNA:RNA)
RNA: B1 RNA with G25U, G26U, C28G, C29G, U30C
DNA 1: CAATCTGAATTCCGGTCTCCC
DNA 2: TGGTGGCTACGACGGGATT

The assay has as its target T1, RBFOX1 RRM RbFoxmut (Fox-RRM*) (Homo sapiens, UniProt Q9NWB1 109-208, R118D;E147R;N151S;E152T).
T1 sequence: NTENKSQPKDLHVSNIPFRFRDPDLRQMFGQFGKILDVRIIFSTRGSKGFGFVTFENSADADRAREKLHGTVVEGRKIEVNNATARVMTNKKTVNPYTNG
As to the kind of experiment: EMSA; HiTS-Eq, 1 nM pool, 10 min; buffer printed only for the single-RNA assays: 10 mM Tris pH 7.5, 150 mM NaCl, 3.4 mM EDTA, 0.001% NP-40, 30 C. The settings on record: tags: His6 N-terminal (pET28a); label: 5' 32P. In short, it runs like this: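 Purified RbFox RRM, wild type or mutant, was incubated for 10 min in 50 µL with 1 nM of a 5′-radiolabelled RNA pool carrying 7 randomized nucleotides, whose flanks were annealed to DNA oligonucleotides, over a series of increasing protein concentrations. Unbound RNA was resolved on 8% native PAGE, cut out, reverse-transcribed, barcoded by PCR and sequenced on an Illumina HiSeq 2500. Relative association constants were derived from changes in read counts for each RNA species versus the control reaction and normalised to the cognate motif.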
With B1, the binding signal was 0.0849 KA relative to UGCAUGU.

Regarding B2, the binding signal is 0.0792 KA relative to UGCAUGU.

Take B3: the binding signal is 0.0678 KA relative to UGCAUGU.

On to B4, for which the binding signal is 0.14 KA relative to UGCAUGU.

Consider B5, for which the binding signal was 0.163 KA relative to UGCAUGU.

As for B6, the binding signal is 0.135 KA relative to UGCAUGU.

In the case of B7, the binding signal is 0.0945 KA relative to UGCAUGU.

B8: the binding signal is 0.0857 KA relative to UGCAUGU.

For the molecule B9, the binding signal is 0.123 KA relative to UGCAUGU.

As for B10, the binding signal is 0.118 KA relative to UGCAUGU.

On to B11, for which the binding signal was 0.419 KA relative to UGCAUGU.

B12: the binding signal was 0.214 KA relative to UGCAUGU.

B13: the binding signal is 0.109 KA relative to UGCAUGU.

Take B14: the binding signal is 0.334 KA relative to UGCAUGU.

As for B15, the binding signal is 0.0674 KA relative to UGCAUGU.

As for B16, the binding signal was 0.161 KA relative to UGCAUGU.

On to B17, for which the binding signal is 0.0896 KA relative to UGCAUGU.

On to B18, for which the binding signal was 0.105 KA relative to UGCAUGU.

As to B19, the binding signal is 0.103 KA relative to UGCAUGU.

Turning to B20, the binding signal is 0.177 KA relative to UGCAUGU.

As to B21, the binding signal was 0.0709 KA relative to UGCAUGU.

Consider B22, for which the binding signal is 0.795 KA relative to UGCAUGU.

Consider B23, for which the binding signal was 0.1 KA relative to UGCAUGU.

On to B24, for which the binding signal is 0.129 KA relative to UGCAUGU.

As for B25, the binding signal is 0.115 KA relative to UGCAUGU.

In the case of B26, the binding signal is 0.114 KA relative to UGCAUGU.

Consider B27, for which the binding signal was 0.107 KA relative to UGCAUGU.

As for B28, the binding signal is 0.0799 KA relative to UGCAUGU.

Regarding B29, the binding signal is 1.12 KA relative to UGCAUGU.

For B30, the binding signal is 0.0811 KA relative to UGCAUGU.

Turning to B31, the binding signal was 0.0951 KA relative to UGCAUGU.
